# Data: the supplement of paper PMC10338343
# ± gives the standard deviation. This is a selection; strong and weak results do not stand in their true shares.
# Test system: MIWI (PIWIL1) piRISC loaded with piRNA #1 (30 nt)
# Assay: pre-steady-state target cleavage rate (min^-1); MIWI and MILI are mouse PIWI proteins and EfPiwi is from a freshwater sponge; tags in brackets are library labels; higher = faster piRNA-guided slicing of the target
# Settings: guide: piRNA #1 5'p-UGAGGUAGUAGGUUGUAUAGUAUCCAGAGG; auxiliary factor: 500 nM mouse GTSF1
# Outline: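 Cleave-'n-Seq measured uncleaved targets by sequencing after a transcribed, DNA-blocked target RNA library […] was mixed with 1 nM active affinity-purified piRISC holding one synthetic guide, with or without 500 nM GTSF1 partner protein, at 33 °C in HEPES–potassium acetate buffer for 0–8 or 0–960 min. Counts were normalised to depth and to weakly complementary targets, three trials were pooled, and k3 was capped at 0.0001 min^-1. A burst-and-steady-state fit gave the pre-steady-state cleavage rate.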
# 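Also: 1 nM active piRISC with 0.1 nM target library at 33 °C single turnover.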
row,Sequence,pre-steady-state target cleavage rate
1,GGUCUGGAUACUAAUACAACCUACUACCUCA,1.67 ± 0.11
2,GGUCUGGAUACUAUUCAACCUAGUACCUCA,0.396 ± 0.067
3,GGAGACCUAUGUAUACAUCCUACUACCUCA,0.0576 ± 0.0082
4,GGAGACCUAUCUAUACUACCUACUAGCUCA,0.00936 ± 0.0028
5,GCUCUGGAUACAUAACAACCUACUACCUCA,0.907 ± 0.092
6,GGAGACCUUACUAUACAACCUAGAUCCUCA,0.0191 ± 0.0044
7,CCUCUGGAUACUAUACACCUACUACCUCA,0.317 ± 0.036
8,CCUCUGGAUACUACACAACCUACUACCUCA,1.97 ± 0.12
9,GCUCUGGAUUCUAUACAACGUACUACCUCA,0.761 ± 0.048
10,GGUCUGGAUACUAUACAACGUACUAGCUCA,0.0477 ± 0.014
11,GGAGUGGAUAGUAUACAAGCUACUACCUCA,0.252 ± 0.026
12,GGAGACCAGACUAUACAACCUACUACCUCA,1.15 ± 0.12
13,GGAGACCAUACUAUACAAGCUACUACCUCA,0.952 ± 0.049
14,GGAGACCUAUGAUAUGAAGGAACUACCUCA,< 0.0001
15,GGUCUGGAUAGCUAUACAACCUACUACCUCA,0.662 ± 0.056
16,GGAGACCUAUGUAACAACCUACUACCUCA,0.00914 ± 0.0033
